# Reference: FireProtDB (doi:10.1021/bi002364+)
# Settings: Homo sapiens, 25 °C, Urea, phosphate 10 mM, NaCl 100 mM, reversible: yes
substance,measurement,setting,value
Fibroblast growth factor 2 wild type (sequence not shown),denaturant midpoint (higher = more stable),"pH 4, CD",0.1 M
same,denaturant midpoint (higher = more stable),"pH 4, Fluorescence",0.15 M
same,denaturant midpoint (higher = more stable),"pH 4.5, CD",0.38 M
same,denaturant midpoint (higher = more stable),"pH 4.5, Fluorescence",0.39 M
same,denaturant midpoint (higher = more stable),"pH 5, CD",0.85 M
same,denaturant midpoint (higher = more stable),"pH 5, Fluorescence",0.92 M
same,denaturant midpoint (higher = more stable),"pH 5.5, Fluorescence",1.12 M
same,denaturant midpoint (higher = more stable),"pH 6, CD",1.35 M
same,denaturant midpoint (higher = more stable),"pH 6, Fluorescence",1.68 M
same,denaturant midpoint (higher = more stable),"pH 6.5, Fluorescence",1.48 M
same,denaturant midpoint (higher = more stable),"pH 7, CD",1.98 M
same,denaturant midpoint (higher = more stable),"pH 7, Fluorescence",1.98 M
same,denaturant midpoint (higher = more stable),"pH 8, CD",1.65 M
same,denaturant midpoint (higher = more stable),"pH 8, Fluorescence",1.67 M
same,denaturant midpoint (higher = more stable),"pH 8.5, Fluorescence",1.77 M
same,denaturant midpoint (higher = more stable),"pH 9, CD",0.72 M
same,denaturant midpoint (higher = more stable),"pH 9, Fluorescence",1.21 M
